The source of these data is ChEMBL document CHEMBL4888484, “Replenishing the malaria drug discovery pipeline: Screening and hit evaluation of the MMV Hit Generation Library 1 (HGL1) against asexual blood stage Plasmodium falciparum ,using a nano luciferase reporter read-out” (2022).

Each structure is given as a SMILES string. About 540 (0.36%) of roughly 150,000 compounds showed an effect of 50% or more. The list shows a part of the results.

In the assay the test system is Plasmodium falciparum. As to the kind of experiment: Primary screen in NF54 nanoGlo assay, in single point, at 2uM, 72h; a lower Z score goes with more inhibition. As to conditions: timepoint 72 hour. It is filed as functional, Erythrocyte.
On to `CN1CCCN(c2ccc(NC(=O)N[C@H]3CCc4cc(F)ccc43)cc2F)CC1`, for which the “% Inhibition” value amounted to 0% and the Z score is on record as -0.01.
Regarding `COc1ccc2c(c1)N1CCN(c3ccccc3F)CC1C(C(=O)NC1CC1)C2` (stereo unspecified), the “% Inhibition” value is recorded as -9% and the Z score turned out to be 1.16.
For `Cn1ccnc1-c1nccn1-c1cccc(-c2cnc[nH]2)c1` the same measures were 0% and -0.05.
For `O=C(COc1ccc(CCO)cc1-n1nc2ccccc2n1)N1CCCc2ccccc21` the same measures were 5% and -0.69.
Take `CC1(C)CC(N2CC(O)=C(c3nc4ccccc4s3)C2=N)CC(C)(C)N1`: the “% Inhibition” value was determined as 10% and the Z score is -1.2.
Taken in the same sequence, the figures for `Cc1nn(C)c2nc(NCCCN3CCC[C@H](C)C3)sc12` were -14% and 2.46.
Taken in the same sequence, the figures for `O[C@@H](COCc1ccccc1)Cn1ccnc1-c1cccnc1` were 3% and -0.48.
For `Cc1ncoc1C(=O)NC(C)(C)CC1CCCCCC1`, the “% Inhibition” value is -18% and the Z score is 1.93.
Taken in the same sequence, the figures for `CN1CCN(c2ccc(F)cc2C(=O)NCc2ccc3cnn(C)c3c2)CC1` were 36% and -4.09.
Taken in the same sequence, the figures for `CCOc1ccc(CN2C(=O)CC[C@@]2(C)C(=O)NC2CCCCCCC2)cc1` were -12% and 2.02.
As to `Cn1cccc1C(=O)C(=O)NCc1ccccc1`, the “% Inhibition” value is reported as -3% and the Z score turned out to be 0.23.
For `Clc1ccc2nc(-c3ccco3)c(Nc3ccc4c(c3)OCCO4)n2c1` the same measures were -16% and 1.56.
As to `O=C(NCCN(CCOCCO)C(=O)C1CC=CC1)C1CC=CC1`, the “% Inhibition” value was -3% and the Z score is 0.41.
For `CCOc1cc(CNC(=O)C2CCN(c3nc4ccccc4[nH]3)CC2)ccc1OC` the same measures were 3% and -0.5.
For `CN(C)c1ccc(CNC(=O)c2nnn(-c3ccccc3Cl)c2-c2ccccn2)cc1` the same measures were -14% and 1.65.
For `CO[C@@]12CC[C@@H](NC(=O)c3cc(C)on3)C[C@@H]1N(C(=O)c1cnc[nH]1)CC2` the same measures were -9% and 1.17.
As for `CN(Cc1ccc(Cl)cc1)Cn1nc([C@H]2CCS(=O)(=O)C2)oc1=S`, the “% Inhibition” value was -9% and the Z score came to 1.74.
Taken in the same sequence, the figures for `COc1ccc(OC[C@@H](O)CN2CCC(O)CC2)c(CNCc2ccccc2C)c1` were 18% and -3.45.
For `COc1ccc2c(C)c(C(=O)N3CCN(Cc4ccccc4)CC3)oc2c1`, the “% Inhibition” value was -11% and the Z score was 2.11.
For `Cc1ccc(Cc2ccccn2)cc1NC(=O)N1CCCC1` the same measures were -3% and 0.25.
For `COc1ccc(NS(=O)(=O)[C@H]2CCS(=O)(=O)C2)cc1` the same measures were 2% and -0.4.
Taken in the same sequence, the figures for `CCOc1nc(N2CCC[C@@H]2C(=O)O)ncc1Cl` were -2% and 0.32.
`COc1ccccc1N1C(=O)C2C(C1=O)C1(C)CC2(C)CC1=O` (stereo unspecified): the “% Inhibition” value is given as -10% and the Z score was 1.38.
For `O=C(c1c[nH]c2ncc(Br)cc12)C1CC1`, the “% Inhibition” value is 12% and the Z score is -1.6.
For `O=C(OCC(=O)N1CCN(Cc2ccccc2)CC1)c1nccc2ccccc12` the same measures were 45% and -6.07.
Taken in the same sequence, the figures for `O=C(NCCc1ccncc1)c1cccc2[nH]cc(CN3CCCC3)c12` were 7% and -1.01.
For `CCCN1N=C(C(=O)N2CCOCC2)S(=O)(=O)c2cc(Cl)ccc21` the same measures were -7% and 0.92.
Take `COCCN1C(=O)c2ccc(C(=O)NCc3ccncc3)cc2C1=O`: the “% Inhibition” value was -3% and the Z score is recorded as 0.39.
Taken in the same sequence, the figures for `CN1CC(=O)Nc2cc(C(=O)N3CCOC[C@@]3(C)C3CC3)cnc21` were -8% and 1.72.
With `CCCC1CCN(C2CCN(C)C2=O)C1` (stereo unspecified), the “% Inhibition” value is recorded as -4% and the Z score amounted to 0.41.
Taken in the same sequence, the figures for `CC[C@H](NC(=O)[C@H]1CC[C@@H](O)CC1)c1ncccc1C` were -24% and 2.75.
Regarding `Cc1cc(=O)n2c(=O)c(/C=C/c3ccc(Cl)cc3)n[nH]c2n1`, the “% Inhibition” value is given as -19% and the Z score was 2.18.
Taken in the same sequence, the figures for `CC(C)[C@@]1(CO)CCCN(C(=O)c2csc3ccccc23)C1` were -8% and 1.36.
Take `CCN1CCCC[C@@H]1CNCc1cc(C#CCO)cs1`: the “% Inhibition” value came to 7% and the Z score is on record as -1.39.
With `O=C(COCC(=O)Nc1ccccc1)NC[C@H]1CCCO1`, the “% Inhibition” value is recorded as -4% and the Z score was determined as 0.47.
For `Cc1cc(C)cc(N(CCC#N)C(=O)COC(=O)CCc2c(C)[nH]c(=O)[nH]c2=O)c1`, the “% Inhibition” value is listed as -3% and the Z score turned out to be 0.38.
For the compound `COc1ccc(Cn2ccc(C3CC3)n2)cc1F`, the “% Inhibition” value is -7% and the Z score was found to be 0.63.
Taken in the same sequence, the figures for `COc1ccc(Br)c(CN(CC#N)S(=O)(=O)N(C)C)c1` were -8% and 1.27.
As to `Cc1[nH]ncc1C(=O)N1CCC=C(F)C1`, the “% Inhibition” value is recorded as -8% and the Z score stood at 0.99.
As to `Cc1nc([C@H](C)NS(=O)(=O)c2ccc(C)c(N(C)C)c2)cs1`, the “% Inhibition” value was -2% and the Z score turned out to be 0.3.
Turning to `COc1cc(NC(=O)N[C@@H]2CCC[C@@H]2Oc2cnn(C)c2)n(C)n1`, the “% Inhibition” value is recorded as -7% and the Z score is given as 0.69.
Regarding `Cc1cc(NC(=O)CN(C(C)C)C2CC2)no1`, the “% Inhibition” value is -5% and the Z score is recorded as 0.54.
For `COc1ccc(CNC(=O)CC2CCN(C(=O)c3ccc(C)cc3)CC2)cc1` the same measures were -7% and 1.27.

As usually defined, the % Inhibition is the change of the read-out against control, counted positive when it falls.
